Screen size: about 410,000 compounds; about 6,400 (1.6%) were called active. Inconclusive results, whose numbers are uncertain, are shown with a selection of clear calls. The call rests on the fitted dose curve; in most records, active means well fitted inhibition curve with a large enough effect; inconclusive means small, poorly fitted or top-dose-only effect; inactive means no such curve, though single readings can be large or run the other way. Potencies of inconclusive entries are left out as doubtful fits.
biological target: Glucagon-like peptide 1 receptor (Homo sapiens) (UniProt P43220); assay: qHTS of GLP-1 Receptor Inverse Agonists (Inhibition Mode); details: HEK293 GLP-1R CRE-luciferase, luminescence, 24 h, GLP-1R form is constitutively active; activity change, negative = inhibition: at 38.3 µM (top of the series) unless noted; further: nearly all actives have a fitted effect of over 55% in size
How it was run: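 Inverse agonists were sought by their lowering of basal cAMP reporter luciferase output in HEK293 cells stably carrying constitutively active human GLP-1R, after 24 h compound treatment.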
On the % scale 0 is the no-effect control and ±100 the full control effect; potency means the concentration at half of the fitted maximal effect; tags describe the fitted curve by direction and shape.

Chain of UniProt P43220 (P43220 whole entry, looked up): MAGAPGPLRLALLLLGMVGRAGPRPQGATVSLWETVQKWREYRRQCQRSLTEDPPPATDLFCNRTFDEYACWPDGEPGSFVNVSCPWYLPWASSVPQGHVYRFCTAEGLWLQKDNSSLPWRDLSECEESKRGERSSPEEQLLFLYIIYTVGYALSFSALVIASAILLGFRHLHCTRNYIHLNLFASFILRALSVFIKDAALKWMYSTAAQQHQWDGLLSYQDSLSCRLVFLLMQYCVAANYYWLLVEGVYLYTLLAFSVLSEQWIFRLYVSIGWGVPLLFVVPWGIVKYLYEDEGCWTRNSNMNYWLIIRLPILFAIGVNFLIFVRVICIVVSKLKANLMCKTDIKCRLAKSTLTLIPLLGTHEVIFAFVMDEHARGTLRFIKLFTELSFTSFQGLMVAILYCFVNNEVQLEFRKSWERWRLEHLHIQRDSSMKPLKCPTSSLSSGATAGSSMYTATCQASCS

| SMILES | Potency | activity change, negative = inhibition |
| --- | --- | --- |
| COc1ccc(C2OC(CCc3ccccc3)CC3=C2C(=O)OC(C)(C)O3)cc1 (centres undefined) | inconclusive [inhibitor, single point] | – |
| CCOc1ccccc1C(=O)Nc1cc2c(cc1N1CCOCC1)n(C)c(=O)n2C | inactive | – |
| CCCCCCCCCCCCN1[C@@H](CC(C)=O)c2cc(F)ccc2S1(=O)=O | inconclusive [inhibitor, partial curve] | – |
| CC(C)(C)C1CCC(C(=O)OCC(=O)c2ccc[nH]2)CC1 (centres undefined) | inconclusive [inhibitor, single point] | – |
| CCN(CC)c1ccc(S(=O)(=O)N2CCOCC2)cc1NC(=O)CSc1ccccc1 | inconclusive [inhibitor, partial curve, poor fit] | – |
| Cc1csc2c(N3CCN(C(=S)Nc4ccc(C(F)(F)F)cc4)CC3)ncnc12 | inconclusive [inhibitor, partial curve] | – |
| CN(CCOc1ccccc1Cl)Cc1ccccc1 | inconclusive [inhibitor, partial curve, poor fit] | – |
| CCOC(=O)Cc1csc(NC(=O)COc2ccc3c(c2)CCC3)n1 | inconclusive [inhibitor, partial curve, poor fit] | – |
| C#CCN(Cc1ccco1)C(=O)c1cc(COc2ccc(F)cc2Cl)on1 | inconclusive [inhibitor, single point] | – |
| Cc1nc2c(C(=O)NCCc3ccccc3)c[nH]n2c(=O)c1Cc1ccc(F)cc1Cl | inconclusive [inhibitor, single point] | – |
| COC(=O)CC1COc2ccccc2N1C(=O)/C=C/c1ccccc1 (centres undefined) | inconclusive [inhibitor, partial curve, poor fit] | – |
| O=C(NCC1CCCO1)c1ccc(COc2ccccc2)o1 (centres undefined) | inconclusive [inhibitor, single point] | – |
| COc1ccc(-c2cc(C(=O)N3CCOCC3)no2)cc1 | inconclusive [inhibitor, partial curve, poor fit] | – |
| CC(C)OCCCNc1nc(-c2ccccc2)nc2ccccc12 | inconclusive [inhibitor, partial curve, poor fit] | – |
| COc1ccc(CN2CCNC(=O)C2CC(=O)NC2CCCCCC2)c(F)c1 (centres undefined) | inactive | – |
| Cc1ccc(C(=O)O/N=C(\N)c2ccccn2)cc1C | inconclusive [inhibitor, full curve, poor fit] | – |
| Cc1ccc(S(=O)(=O)N2CCCCC2CCNC(=O)C(=O)NCc2ccccc2C)cc1 (centres undefined) | inconclusive [inhibitor, partial curve, poor fit] | – |
| COc1ccc(-c2[nH]c(-c3cccc(OC)c3)nc2SCC(=O)NCc2ccco2)cc1 | inconclusive [inhibitor, single point] | – |
| COc1cc(/C=C2\SC(=S)N(CC(=O)Nc3ccccn3)C2=O)cc(OC)c1OC | inconclusive [inhibitor, single point] | – |
| O=C(CCC(=O)Nc1ccc(Br)cc1)N/N=C/c1ccc(O)cc1 | inconclusive [inhibitor, single point] | – |
| Cc1cccc(C)c1NC(=O)C(c1cccc2ccccc12)n1c(=O)c(-c2cc3ccccc3[nH]2)nc2ccccc21 (centres undefined) | inconclusive [inhibitor, partial curve] | – |
| c1ccc(Nc2c(-c3ccco3)nc3ccccn23)cc1 | inactive | – |

| SMILES | Potency | activity change, negative = inhibition |
| --- | --- | --- |
| CCc1ccc(CN2CC(C(=O)O)CC2=O)cc1 (centres undefined) | inactive | – |
| Cc1ccccc1C(=O)N1CCN(c2ccc(NC(=O)Cc3ccccc3)cc2)CC1 | inconclusive [inhibitor, single point] | – |
| O=C(CC1SC(=Nc2ccccc2F)N(CCN2CCOCC2)C1=O)Nc1ccc(F)cc1F (centres undefined) | inconclusive [inhibitor, partial curve, poor fit] | – |
| O=C(C1CCC(CNc2nc(=S)[nH]c3ccccc23)CC1)N1CCN(c2ccc(F)cc2)CC1 (centres undefined) | inconclusive [inhibitor, partial curve, poor fit] | – |
| CC1CCN(CCCCOc2ccc(C(=O)c3ccccc3)cc2)CC1 | inconclusive [inhibitor, partial curve, poor fit] | – |
| CCCOc1ccc(-c2nc(N3CCN(CC)CC3)c3ccccc3n2)cc1 | active: 7.94 µM | – |
| COc1ccc(CNC(=O)c2cccc(S(=O)(=O)N3CCN(c4ccc(F)cc4)CC3)c2)cc1 | inconclusive [inhibitor, single point] | – |
| COc1cc(C=O)ccc1OCCCOc1ccccc1C(=O)O | active: 2.24 µM | – |
| CNc1ncnc(Sc2nc(N)nc3nc[nH]c23)c1[N+](=O)[O-] | inactive | – |
| O=C(Cn1cc(S(=O)(=O)Cc2ccccc2F)c2ccccc21)NCc1ccccc1Cl | inconclusive [inhibitor, single point] | – |
| Cc1cc(C)cc(NC(=O)CN2C(=O)CCc3cc(S(=O)(=O)N4CCCCC4)ccc32)c1 | inconclusive [inhibitor, single point] | – |
| Cc1nn2c(=O)cc(COC(=O)c3ccc(NC(=O)c4cccs4)cc3)nc2s1 | inconclusive [inhibitor, partial curve, poor fit] | – |
| COc1ccc(Cl)cc1C(=O)Nc1ccc(CN2CCCCC2)cc1 | inconclusive [inhibitor, partial curve, poor fit] | – |
| CC(OC(=O)c1oc2ccccc2c1COc1ccccc1)C(N)=O (centres undefined) | inconclusive [inhibitor, partial curve, poor fit] | – |
| O=C(NCCN1CCOCC1)c1ccc2ccccc2c1 | inactive | – |
| CN(CC(=O)Nc1ccccc1Cl)C(=O)COC(=O)c1nc(Cl)c(Cl)c(Cl)c1Cl | inconclusive [inhibitor, single point] | – |
| Cc1cccc(NC(=O)CSc2ccc(-c3ccco3)nn2)c1C | inactive | – |
| O=C(NCc1nnnn1-c1ccc(Cl)cc1)c1ccc2c(c1)OCO2 | inactive | – |
| COc1ccc(-c2cn3c(n2)CCC3)cc1 | inactive | – |
| CCN(C(=O)Cn1nc(Cc2ccncc2)c2ccccc2c1=O)c1cccc(C(F)(F)F)c1 | inactive | – |
| CCc1cccc(C)c1N(C(=O)Cn1c(COC)nc2ccccc21)C(C)COC (centres undefined) | inconclusive [inhibitor, partial curve, poor fit] | – |
| O=C(NCCc1ccccc1)c1ccc2c(c1)CCN2S(=O)(=O)c1ccccc1 | inconclusive [inhibitor, single point] | – |

| SMILES | Potency | activity change, negative = inhibition |
| --- | --- | --- |
| CCOC(=O)c1c(-c2ccccc2Cl)csc1NC(=O)c1cc(S(=O)(=O)N2CCOCC2)ccc1C | inconclusive [inhibitor, full curve, poor fit] | – |
| Cc1c(C(=O)NC2CCCC2)oc2ccccc12 | inconclusive [inhibitor, partial curve, poor fit] | – |
| O=C(COC(=O)c1c[nH]c2ccccc12)Nc1ccc([N+](=O)[O-])cc1 | inconclusive [inhibitor, partial curve, poor fit] | – |
| CCOc1cc(C(=O)NC(=S)Nc2cccnc2)cc(OCC)c1OCC | inconclusive [inhibitor, single point] | – |
| Cc1ccc(-c2nc(NCCCO)c3ccccc3n2)cc1 | inconclusive [inhibitor, single point] | – |
| Cc1ccc(NC(=O)CC2=NC(=O)C(CC(=O)Nc3ccccc3F)S2)cc1 (centres undefined) | inconclusive [inhibitor, single point] | – |
| CCOc1ccc(CNC(=O)C2CCCN(S(=O)(=O)N(CC)c3ccc(OCC)cc3)C2)cc1 (centres undefined) | inconclusive [inhibitor, single point] | – |
| COc1ccc(-n2ncc(C(=O)Nc3ccc4c(c3)OCCO4)c2C2CCN(C(=O)OC(C)(C)C)CC2)cc1 | inconclusive [inhibitor, single point] | – |
| COc1ccc(/C=C/C(=O)Nc2ccc(S(=O)(=O)N3CCOCC3)cc2)c(OC)c1 | inconclusive [inhibitor, single point] | – |
| Cc1ccc(C(=O)N2NC(c3ccc(F)cc3)C3C(=O)N(c4ccc(C)c(C)c4)C(=O)C32)cc1 (centres undefined) | inconclusive [inhibitor, single point] | – |
| Cc1ccc(Nc2sc(C(=O)c3ccccc3)c(N)c2S(=O)(=O)c2ccccc2)c(C)c1 | inactive | – |
| COc1ccc(CCNC(=O)c2c(C)nn(-c3ccc(F)cc3)c2-n2cccc2)c(OC)c1OC | inconclusive [inhibitor, partial curve, poor fit] | – |
| COc1ccccc1C(=O)OCC(=O)NC12CC3CC(CC(C3)C1)C2 | active: 10 µM | – |
| COc1ccc(C(=O)Nc2ccc(NC(=O)c3ccccc3)cc2)cc1S(=O)(=O)N1CCOCC1 | inconclusive [inhibitor, partial curve] | – |
| CN(Cc1ccccc1F)C(=O)CNC(=O)Cc1cccc2ccccc12 | inconclusive [inhibitor, partial curve, poor fit] | – |
| Cc1cc(C)cc(NC(=O)Nc2ccc3c(c2)CCC3)c1 | inactive | – |
| Cc1ccc(NC(=O)COC(=O)COc2ccc3ccc(=O)oc3c2)cc1[N+](=O)[O-] | inactive | – |
| CCCCOc1nc2ccccc2nc1NS(=O)(=O)c1ccc(F)cc1 | inconclusive [inhibitor, partial curve, poor fit] | – |
| COC(=O)C[C@H]1c2cc(C(F)(F)F)ccc2S(=O)(=O)N1C1CCCCC1 | inactive | – |
| CN(C)/C=N/C(=S)Nc1ccc(Cl)cc1 | – | inactive: 7.4% [at 7.66 µM] |
